The other results are listed elsewhere or left out.

The assay has as its system PfSIP2 AP2 domain 1 (GST-tagged). The experiment in a line: gcPBM binding intensity (ln(normalized median fluorescence intensity)); higher = stronger DNA binding. In short, it runs like this:
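Each value is the highest Masliner-normalised natural-log median intensity across replicate spots of either orientation of a probe. The probes were primer-extended double-stranded 36-bp intergenic genomic sequences on an Agilent 4 × 180k array, alongside negative controls, exposed for 1 h to GST-tagged P. falciparum DNA-binding domains expressed in E. coli. Bound protein was picked up with Alexa488 anti-GST antibody and scanned at 488 nm.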
In the case of “CTTATAAAAAAAAAAACATGCAACAGTAAAGAACAA [TGCATGCA_site892]”, the “gcPBM binding intensity (ln)” value turned out to be 7.13. With “GGTAATTTTTTTTAAATACACACTGAAATGTGAATT [CACACA_site564]”, the “gcPBM binding intensity (ln)” value is 7.29. The figure for “CATACAGATATATATACACACATACAGATAAATACA [CACACA_site4592]” is 7.21. The figure for “AAGATTAAAAATTGCACACAAAAATATATTTTCTAT [CACACA_site1305]” is 7.41. The figure for “AAATTATATCATTTATTTTTTTATATTTTTTATATT [CACACA_negctrl_site685]” is 6.75.

Take “AATTTCCTTTTTTAAAGTACACAAAAGTTCACTTTG [XGTACX_site4460]”: the “gcPBM binding intensity (ln)” value came out at 6.83. The figure for “TATAATTTATTAAGGGGTACATATATTTCATGATAA [XGTACX_site5141]” is 7.19. Consider “AAAAAAAAAAATATCACACACACATAAATATAAACC [CACACA_site2278]”, for which the “gcPBM binding intensity (ln)” value was found to be 7.32. The figure for “AAATTATATCAATGTTGTACATATTATTTTTTTCTC [XGTACX_site5948]” is 6.86; for “TAGTATAAAATTATGTGTACACAAATATAACTTTTC [XGTACX_site5971]” it is 7.2.

On to “AAAAAAAAAAAAAGGTGTACAAGTATAATTACATAA [XGTACX_site534]”, for which the “gcPBM binding intensity (ln)” value was 7.36.

Regarding “TATTTATTGTGATACTTTTATTGTTTAATGATTAAA [CACACA_negctrl_site495]”, the “gcPBM binding intensity (ln)” value came out at 6.88.

Consider “TTGTTAAAAGTATCCATTCTTTATTACTTTTGTTTA [XGTACX_negctrl_site532]”, for which the “gcPBM binding intensity (ln)” value is 6.95. In the case of “TGTACCTTATTAATATATTTAACTCGCCTTATATAC [XGTACX_negctrl_site289]” it was 7.21; in that of “ATTGGGTACAAATACACACACATATATATATTAATA [CACACA_site2376]”, 7.1; in that of “TCGTAAACATATTGAAAAATATAAAAAGGGGTAATA [CACACA_negctrl_site619]”, 6.91. The figure for “AATGGTATAATCAATACACACATAATATATATATTG [CACACA_site1658]” is 6.9.

On to “TTAAGATATGTATATCGTACATGACATTAAAAATTT [XGTACX_site3352]”, for which the “gcPBM binding intensity (ln)” value was 6.71. The figure for “TAAAAAAAATACAAAAGTACACAAAATTATACGTTA [XGTACX_site4656]” is 7.07; for “AAATAAATACACATATGTACATATTTTATTTTATTT [XGTACX_site2357]” it is 7.09; for “CAAATATAAATATATACATGCATCTATCTATATAAA [TGCATGCA_site369]” it is 7. Regarding “AATCAAAAATCAAACGCATGTAGTATAATAGATAAG [TGCATGCA_site753]”, the “gcPBM binding intensity (ln)” value was determined as 6.92. For “AAATTGTAGCACCAAGCATGCTAAAAGGACATATGA [TGCATGCA_site717]”, the “gcPBM binding intensity (ln)” value was 7.5. “TTATTTTCCCTTTGTGCATGCAGTTTACTTTTTGTG [TGCATGCA_site993]”: the “gcPBM binding intensity (ln)” value was determined as 7.95.

Regarding “ACTTGTAAGAGACACACACACACACGGATATAAATA [CACACA_site6517]”, the “gcPBM binding intensity (ln)” value amounted to 6.99. In the case of “ACACATATATTAAATGTGCACTGAAATATGCATATA [GTGCAC_site9936]” it was 9.89. With “CAAAATAAAAATAACACACACATTTATTTATATACA [CACACA_site6679]”, the “gcPBM binding intensity (ln)” value was 6.92. In the case of “ATATATGTATATTTATGTACGTATTCCTGTATAGTC [XGTACX_site5763]” it was 7.22. Consider “GGAAAAAAAAATAAATGTACGAATTAACATATCAAA [XGTACX_site5653]”, for which the “gcPBM binding intensity (ln)” value worked out at 6.75. The figure for “ACACAAGCACACAAATGTACATATATATATATATAT [XGTACX_site5146]” is 9.61. Regarding “GTAACATTTTAAATATATACATATAATGTATTTATA [GTGCAC_negctrl_site344]”, the “gcPBM binding intensity (ln)” value is 7.03. The figure for “ATTAAACCGTGGGAGCACACACACACACACACACAT [TGCATGCA_negctrl_site72]” is 7.18. In the case of “TGTTGTATCAATTTTTGTACATAACACATATGTATA [XGTACX_site3666]” it was 6.93.

As for “ATTAATTAAAAGGGAACACATAGAAATTATAAAACA [GTGCAC_negctrl_site420]”, the “gcPBM binding intensity (ln)” value turned out to be 7.07. The figure for “ATATATATATTATGGGGTACAAACATCAAAAGATTT [XGTACX_site3944]” is 8.33; for “TGTGTAGGGGATATTCTACTTTAAAAATAAATATAT [CACACA_negctrl_site207]” it is 7.26.

For “TATAAAAGATTGGAATGTACATAAGAAAAAAATATA [XGTACX_site5028]”, the “gcPBM binding intensity (ln)” value is 7.49. On to AATCATATTAGTATGGTGCAACATATATAAATATAT, for which the “gcPBM binding intensity (ln)” value amounted to 10.8. In the case of “GGCCCAACTTCTTCTGACGAAAACGTAAATTGTGTG [XGTACX_negctrl_site533]” it was 6.89. In the case of “TTCAAGATTTATTATACACACATATTAATATTTATA [CACACA_site6413]” it was 7.16; in that of “ATTCTATTATAATACACACCCAAATATTAAAAAGAT [CACACA_site2960]”, 7.67; in that of “CCACATGATATGATTACACACATATATATATTTACA [CACACA_site164]”, 7.19. The figure for “TATTATATATATATATGTACATATATATGCTAAAAA [XGTACX_site5297]” is 7.3; for “GATGTTGCAAAATTCTGTACATATAAATGTATACAT [XGTACX_site5009]” it is 7.25.

The record behind these values is the supplement of paper PMC11417369.
